Laboratory results from PubChem BioAssay (NCI).
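How tested: cells in 96-well plates exposed to compound for 48 hours at five concentrations. At the GI50, growth is halved. Definition used: TGI = concentration required for complete inhibition of growth.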

Tested on: NCI-H322M lung
Test: NCI-60 cell line screen, 48 h

COc1cc2oc(-c3cccc(C(=O)Nc4ccc(Cl)cc4)c3)cc(=O)c2c(OCCNC(=O)[C@@H](N)CO)c1OC
GI50: 13.4 µM | TGI: 29.9 µM

O=C(N/N=C/c1ccoc1)c1[nH]c2ccc(Br)cc2c1-c1ccccc1
GI50: 2.15 µM | TGI: 16.3 µM

COc1ccc2[nH]c(O)c(N=NC(=O)Cn3c(-c4ccccc4)nc4cc(C)ccc43)c2c1
GI50: 14.1 µM | TGI: 34 µM
